Laboratory results: PubChem BioAssay AID504832 (National Center for Advancing Translational Sciences (NCATS), 2011)
Hit rate of the full screen: of about 310,000 compounds, about 18,000 (5.8%) were called active. The shares of active, inactive and inconclusive entries below differ from those in the screen. Calls follow the shape of the dose curve; as a rule, active = well fitted inhibition curve with a large enough effect; inconclusive = small, poorly fitted or top-dose-only effect, or another doubt; inactive = no such curve, though single readings can be large or run the other way. Potencies of inconclusive entries are left out as doubtful fits.

Experiment: Primary qHTS for delayed death inhibitors of the malarial parasite plastid, 48 hour incubation
Conditions: P. falciparum luciferase growth in erythrocytes; series mostly up to 28.7 µM
Procedure, shortened: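 Luminescence readout; reporter = integrated firefly luciferase in P. falciparum. RBC culture at 2% hematocrit, 0.1% parasitemia final, 37 C/5% CO2; decreased signal taken as growth inhibition.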
Potency is read from the fitted curve at half-maximal effect; tags tell the direction and shape of the fitted curve.

| SMILES | Potency |
| --- | --- |
| CCOC(=O)N1CCN(c2nc(-c3ccc(F)cc3)cs2)CC1 | inactive |
| CCOC(=O)CSc1nnc(N)s1 | inconclusive [inhibitor, partial curve, poor fit] |
| COc1ccc(N2CC(O)=C(c3nc(-c4ccc(Cl)cc4)cs3)C2=N)cc1 | inconclusive [inhibitor, single point] |
| Oc1ccc(CNc2ccccc2)c2cccnc12 | inconclusive [inhibitor, single point] |
| Cc1cc(C)c2nc(N3CCOCC3)c(C#N)cc2c1 | inconclusive [inhibitor, partial curve, poor fit] |
| Fc1ccc(C(CCCn2nnc(-c3cccnc3)n2)c2ccc(F)cc2)cc1 | active: 14.7 µM |
| COc1ccc(NC(=O)c2cncn2-c2ccccc2)cc1 | inactive |
| O=C(Nc1ccc(F)cc1)Nc1nnc(-c2ccccc2)o1 | inactive |
| O=C(Cc1n[nH]c(=O)c2ccccc12)Nc1cccc(S(=O)(=O)N2CCCC2)c1 | inconclusive [inhibitor, partial curve] |
| S=C(N/N=C/c1ccc2ncccc2c1)Nc1ccccc1 | inactive |
| COc1cc(CNc2ccc(N3CCCC3)cc2)cc(Cl)c1OC | active: 3.29 µM |
| CCC/C=N/NC(=O)c1cccc(Br)c1 | inconclusive [inhibitor, partial curve, poor fit] |
| CO[C@H]1C[C@@H]2CC[C@@H](C)[C@@](O)(O2)C(=O)C(=O)N2CCCC[C@H]2C(=O)O[C@H]([C@H](C)C[C@@H]2CC[C@@H](O)[C@H](OC)C2)CC(=O)[C@H](C)C=C(C)[C@@H](O)[C@@H](OC)C(=O)[C@H](C)C[C@H](C)C=CC=CC=C1C | active: 5.22 µM |
| O=c1[nH]c(Nc2ccc3c(c2)OCCO3)nnc1Cc1ccc(Cl)cc1 | inconclusive [inhibitor, partial curve] |
| COc1ccc(N(C(=O)c2ccco2)C(C(=O)NC2CCCC2)c2ccc(C)cc2)c(OC)c1 (stereo not given) | inconclusive [inhibitor, partial curve] |
| O=C(Nc1nnc(-c2ccccc2)o1)C1CCCCC1 | inactive |
| COc1cccc(-c2nnc3n2N=C(C(C)(C)C)CS3)c1 | inconclusive [inhibitor, partial curve, poor fit] |
| COc1ccc(C2Nc3ccccc3C(=O)N2Cc2ccccc2)cc1CN1CCOCC1 (stereo not given) | active: 8.28 µM |
| O=c1cc2c(nn1Cc1ccc(F)cc1)-c1ccccc1CC2 | inactive |
| C/C(Cn1nnc([N+](=O)[O-])n1)=N\NC(=O)c1ccc(Cl)c(Cl)c1 | inconclusive [inhibitor, partial curve, poor fit] |
